Where a chain is given by its changes, count along the chain named.
Biological target: CTLA-4 (BMS, Orencia) (human, UniProt P16410 38-152)
Experiment: cell-based or functional assay

Chain of UniProt P16410 (P16410 38-152 limits assumed): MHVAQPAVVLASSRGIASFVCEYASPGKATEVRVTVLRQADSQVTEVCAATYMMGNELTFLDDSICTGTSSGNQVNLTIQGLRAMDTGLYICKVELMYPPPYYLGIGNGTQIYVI

B1: bispecific molecule 1170/1141 (as printed in Tables 10.1 and 10.2) (bispecific antibody)
heavy: EVQLLESGGGLVQPGGSLRLSCAASGFTFGGYYMSWVRQAPGKGLEWVSYIPGSGGSTYYADSVKGRFTISRDNSKNTLYLQMNSLRAEDTAVYYCARYDYYWMDYWGQGTLVTVSS[sequence of human IgG1 constant region omitted]
light: not shown
With B1 the “Mean IL-2 level (pg/ml) induced at 1.5 nM bispecific antibody or control” value (from here on “Mean IL-2 level (pg/ml) induced”) was 2580 pg/mL.

B2: bispecific molecule 1542/1141 (bispecific antibody)
heavy: EVQLLESGGGLVQPGGSLRLSCAASGFTFGSSSMYWVRQAPGKGLEWVSGIGYYSYSTSYADSVKGRFTISRDNSKNTLYLQMNSLRAEDTAVYYCARGYPHHYFDYWGQGTLVTVSS[sequence of human IgG1 constant region omitted]
light: not shown
For B2, the “Mean IL-2 level (pg/ml) induced” value was 2670 pg/mL.

B3: bispecific molecule 1164/1141 (bispecific antibody)
heavy: B2 heavy with G30Y, S31G, G52Y, Y53S, Y54S, S55G, Y56G, S57Y, Y100V, H103G
light: not shown
B3 was tested, and the “Mean IL-2 level (pg/ml) induced” value was 5020 pg/mL.

B4: bispecific molecule 1168/1141 (bispecific antibody)
heavy: EVQLLESGGGLVQPGGSLRLSCAASGFTFSGSSMSWVRQAPGKGLEWVSSISYYGGYTYYADSVKGRFTISRDNSKNTLYLQMNSLRAEDTAVYYCARYFPHYYFDYWGQGTLVTVSS[sequence of human IgG1 constant region omitted]
light: not shown
B4 was tested, and the “Mean IL-2 level (pg/ml) induced” value was 2680 pg/mL.

From US20200048358A1 (ALLIGATOR BIOSCIENCE, published 2020)
